# Data from the supplement of paper PMC8728848.
# Some of the results follow.
# B1: a L Fucosidase (Streptosporangium roseum), D2B1P1_STRRD (protein)
# chain: MRRKLLLVPAVGLLVIGSIFATQPVASADTPPVYEPTVESLNSHPVPQWFNDDKFGIFIHWGAYSVPAWGPRGSYAEWYGNYMNAGGSATNAHHKATYGQDFNYDAFLQQWKAEKFDPADWVKLFKDAGAKYFVLTSKHHEGMALWDSKSSGRDSVDLGPGRDLAKELFDAARKDEAKLKAGFYYSLYEWYNPAYTGRPATNPYTGAEIPYTGAPGGGDYVKDYMLPQMRELIDGYDPDIIWCDGQWEKPASYWNTAGVIADYYNKALNSGKEVAVANRCKIQSGNLDSPELDFQTPEYTVKPDIDPVKWESSRGIAHSYGYNQNEPEEDHLTSDQLVDSLVDIVSKNGNLLLDIGPKADGTIPEIQRQRLLDIGAWLKANGEAIYGTTYWNRAEEKGGPDDVRYTAKDATLYATALKWPGEQLTLGADLPVDHSTRITMLGSGARLSWSRDEQGRVVVNTPQEAGKHAYVFKIETPGVRSLLRTSSSLAKEIAPGRTISGELTVTNPGKRHTPATKLSLTVPQGWTATLGAPRVRPLGPGESVKVPISVSAPEGVAPAPYTLGLYQRTGRMGTTTALPLTVNRPNLSLGKPATQKSTGYDAPASRAVDGNTGGDWSAGSTTHTAEPEKQAWWQVDLGASARLDSVDVWNRLDCCADRLKDFWVMASDQPFTTDDLDQARTAPGVTAVHVGEQAGSPSKVKLPEGTRGRYVRIQLASPSNPLSLAEVQVRGSMARPNLSLGKPATQKSTGYDAPASRAVDGNTGGDWSAGSTTHTAEPEKQAWWQVDLGASARLDSVDVWNRLDCCADRLKDFWVMASDQPFTTDDLDQARTAPGVTAVHVGEQAGSPSKVKLPEGTRGRYVRIQLASPSNPLSLAEVQVRLEHHHHHHS
# Columns and labels:
# Experiment in all cases: glycan array binding signal (z-score within array); higher = stronger binding
# Conditions in all cases: glycan notation: IUPAC condensed, linker removed
# [1] = molecular target: Gal3S(b1-3)[Fuc(a1-4)]GlcNAc
# Method in brief: (§1)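 Columns mapping to the same glycan were averaged after glycan names were converted to IUPAC-condensed notation. The data come from 3228 arrays in the Consortium for Functional Glycomics database, limited to those with an available protein sequence. Binding is reported as a within-array Z-score averaged across arrays of one protein sequence and across linkers.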
# Gal3S(b1-4)Glc = molecular target: Gal3S(b1-4)Glc
# Method in brief: as §1
# Gal3S(b1-4)Glc6S = molecular target: Gal3S(b1-4)Glc6S
# Method in brief: as §1
# Gal3S(b1-4)GlcNAc = molecular target: Gal3S(b1-4)GlcNAc
# Method in brief: as §1
# [2] = molecular target: Gal3S(b1-4)[Fuc(a1-3)]Glc6S
# Method in brief: as §1
# [3] = molecular target: Gal3S(b1-4)[Fuc(a1-3)]GlcNAc
# Method in brief: as §1
# [4] = molecular target: Gal3S(b1-4)[Fuc(a1-3)]GlcNAc6S
# Method in brief: as §1
# Gal3S4S(b1-4)GlcNAc = molecular target: Gal3S4S(b1-4)GlcNAc
# Method in brief: as §1
# Gal3S6S(b1-4)GlcNAc = molecular target: Gal3S6S(b1-4)GlcNAc
# Method in brief: as §1
# Gal3S6S(b1-4)GlcNAc6S = molecular target: Gal3S6S(b1-4)GlcNAc6S
# Method in brief: as §1
# Gal4S(b1-4)GlcNAc = molecular target: Gal4S(b1-4)GlcNAc
# Method in brief: as §1
# Gal4S6S(b1-4)GlcNAc = molecular target: Gal4S6S(b1-4)GlcNAc
# Method in brief: as §1
# Gal6P(b1-4)GlcNAc = molecular target: Gal6P(b1-4)GlcNAc
# Method in brief: as §1
# Gal6S(b1-3)GlcNAc = molecular target: Gal6S(b1-3)GlcNAc
# Method in brief: as §1
# Gal6S(b1-3)GlcNAc6S = molecular target: Gal6S(b1-3)GlcNAc6S
# Method in brief: as §1
# Gal6S(b1-4)Glc = molecular target: Gal6S(b1-4)Glc
# Method in brief: as §1
# Gal6S(b1-4)Glc6S = molecular target: Gal6S(b1-4)Glc6S
# Method in brief: as §1
# Gal6S(b1-4)GlcNAc = molecular target: Gal6S(b1-4)GlcNAc
# Method in brief: as §1
# Gal6S(b1-4)GlcNAc6S = molecular target: Gal6S(b1-4)GlcNAc6S
# Method in brief: as §1
# GalNAc(a1-3)Gal = molecular target: GalNAc(a1-3)Gal
# Method in brief: as §1
# GalNAc(a1-3)GalNAc = molecular target: GalNAc(a1-3)GalNAc
# Method in brief: as §1
# [5] = molecular target: GalNAc(a1-3)GalNAc(b1-3)Gal(a1-4)Gal(b1-4)Glc
# Method in brief: as §1
# [6] = molecular target: GalNAc(a1-3)GalNAc(b1-3)Gal(a1-4)Gal(b1-4)GlcNAc
# Method in brief: as §1
# GalNAc(b1-3)Gal = molecular target: GalNAc(b1-3)Gal
# Method in brief: as §1
# [7] = molecular target: GalNAc(b1-3)Gal(a1-4)Gal(b1-4)GlcNAc
# Method in brief: as §1
# [8] = molecular target: GalNAc(b1-3)Gal(a1-4)Gal(b1-4)GlcNAc(b1-3)Gal(b1-4)Glc
# Method in brief: as §1
# [9] = molecular target: GalNAc(b1-3)Gal(a1-6)Gal(b1-4)Glc
# Method in brief: as §1
# GalNAc(b1-3)GalNAc = molecular target: GalNAc(b1-3)GalNAc
# Method in brief: as §1
# GalNAc(b1-3)GlcNAc = molecular target: GalNAc(b1-3)GlcNAc
# Method in brief: as §1
# GalNAc(b1-4)Gal(b1-4)Glc = molecular target: GalNAc(b1-4)Gal(b1-4)Glc
# Method in brief: as §1
binder,measurement,setting,value
B1,glycan array binding signal (z-score),[1],-0.548
same,glycan array binding signal (z-score),Gal3S(b1-4)Glc,-0.52
same,glycan array binding signal (z-score),Gal3S(b1-4)Glc6S,0.013
same,glycan array binding signal (z-score),Gal3S(b1-4)GlcNAc,-0.465
same,glycan array binding signal (z-score),[2],-0.086
same,glycan array binding signal (z-score),[3],-0.419
same,glycan array binding signal (z-score),[4],0.329
same,glycan array binding signal (z-score),Gal3S4S(b1-4)GlcNAc,-0.487
same,glycan array binding signal (z-score),Gal3S6S(b1-4)GlcNAc,-0.372
same,glycan array binding signal (z-score),Gal3S6S(b1-4)GlcNAc6S,0.084
same,glycan array binding signal (z-score),Gal4S(b1-4)GlcNAc,-0.485
same,glycan array binding signal (z-score),Gal4S6S(b1-4)GlcNAc,-0.147
same,glycan array binding signal (z-score),Gal6P(b1-4)GlcNAc,-0.076
same,glycan array binding signal (z-score),Gal6S(b1-3)GlcNAc,-0.58
same,glycan array binding signal (z-score),Gal6S(b1-3)GlcNAc6S,0.487
same,glycan array binding signal (z-score),Gal6S(b1-4)Glc,-0.356
same,glycan array binding signal (z-score),Gal6S(b1-4)Glc6S,0.016
same,glycan array binding signal (z-score),Gal6S(b1-4)GlcNAc,-0.516
same,glycan array binding signal (z-score),Gal6S(b1-4)GlcNAc6S,-0.332
same,glycan array binding signal (z-score),GalNAc(a1-3)Gal,-0.595
same,glycan array binding signal (z-score),GalNAc(a1-3)GalNAc,-0.483
same,glycan array binding signal (z-score),[5],-0.338
same,glycan array binding signal (z-score),[6],0.393
same,glycan array binding signal (z-score),GalNAc(b1-3)Gal,-0.257
same,glycan array binding signal (z-score),[7],-0.428
same,glycan array binding signal (z-score),[8],-0.404
same,glycan array binding signal (z-score),[9],-0.451
same,glycan array binding signal (z-score),GalNAc(b1-3)GalNAc,-0.634
same,glycan array binding signal (z-score),GalNAc(b1-3)GlcNAc,-0.481
same,glycan array binding signal (z-score),GalNAc(b1-4)Gal(b1-4)Glc,0.011
